# Among all 310,000 compounds or so, about 18,000 (5.8%) were called active. Inconclusive means that the source gave no clear call. Such entries were picked first, then a sample of the others. Calls come from the whole dose curve; as a rule, active = well fitted inhibition curve with a large enough effect; inconclusive = small, poorly fitted or top-dose-only effect, or another doubt; inactive = no such curve, though single readings can be large or run the other way. No potency is given beside an inconclusive call; the fits are too rough. A structure can be active in one record and inactive in another.
# Assay: Primary qHTS for delayed death inhibitors of the malarial parasite plastid, 48 hour incubation
# Settings: P. falciparum luciferase growth in erythrocytes; series mostly up to 28.7 µM; activity change, negative = inhibition: at the top concentration
# How it was run: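 Firefly luciferase activity from engineered P. falciparum reports growth; inhibitors lower the luminescent signal. Cultures contained 2% hematocrit erythrocytes at 0.1% final parasitemia.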
# % is set by controls: 0 for no effect and ±100 for the full control effect; potency is the fitted concentration of half-maximal effect; tags give direction and shape of the fitted curve.
Structure (SMILES),Potency,"activity change, negative = inhibition"
CCOc1ccccc1NC(=S)N1C2CCC1CC(NC(=O)NC13CC4CC(CC(C4)C1)C3)C2 (configuration not stated),"inconclusive [inhibitor, partial curve]",–
O=C1CS/C(=N\C(=O)N2c3ccccc3Sc3ccccc32)N1,"inconclusive [inhibitor, single point]",–
CC1CCCN(CCOc2cccc(Oc3ccccc3)c2)C1 (configuration not stated),"inconclusive [inhibitor, single point]",–
CC(C)C[C@@H]1NC(=O)[C@H](C(C)C)NC(=O)c2cc([N+](=O)[O-])cc(I)c2OCC[C@@H](C(N)=O)NC1=O,–,inactive: 10.6%
COc1ccccc1CN(C)CC(=O)Nc1cccc(S(=O)(=O)N2CCCCC2)c1,active: 11.7 µM,–
Clc1ccc(CSc2nnc(-c3ccncc3)s2)cc1,"inconclusive [inhibitor, single point]",–
Cc1ccc(-n2c(SCc3ccc(C#N)cc3)nnc2-c2ccccn2)cc1,"inconclusive [inhibitor, single point]",–
O=S(=O)(NC1CC1)c1ccc(Cl)cc1,–,inactive: 37.1%
O=C(CN1CCC(C(=O)c2ccc3c(c2)OCCO3)CC1)NC1CCCC1,"inconclusive [inhibitor, single point]",–
Cn1c(-c2ccc3c(c2)OCO3)cnc1NCc1cccc(Cl)c1,"inconclusive [inhibitor, full curve, poor fit]",–
NS(=O)(=O)c1ccc(NC(=O)/C=C/c2cccs2)cc1,–,inactive: 5.84%
CCc1ccc(-c2ccc3nnc(SCC(N)=O)n3n2)cc1,–,inactive: 25%
COCc1nnc(NC(=O)CCS(=O)(=O)c2ccccc2)s1,–,inactive: -19.2%
CCOc1ccc(NC(=O)CN(C)C(=O)C2CC(=O)N(Cc3ccco3)C2)cc1OCC (configuration not stated),"inconclusive [inhibitor, partial curve]",–
COc1ccc(NS(=O)(=O)c2ccc(C)c(C(=O)NCC(c3cccs3)N3CCOCC3)c2)cc1 (configuration not stated),"inconclusive [inhibitor, full curve]",–
COc1ccccc1CCc1nnc(CCC(=O)N(C)Cc2ccncc2C)o1,–,inactive: -12.1%
NC(=O)c1cc([N+](=O)[O-])ccc1N1CCCCC1,–,inactive: -5.91%
CCOC(=O)N1CCN(C(=O)c2cc(COc3ccc(OC)cc3Cl)on2)CC1,"inconclusive [inhibitor, partial curve, poor fit]",–
Clc1cccc(-c2nc(NCCN3CCOCC3)c3ccccc3n2)c1,"inconclusive [inhibitor, single point]",–
C=CCNC(=O)COC(=O)c1c2c(nc3ccccc13)CCC2,"inconclusive [inhibitor, partial curve, poor fit]",–
COc1cccc(CN2CCNC(=O)C2CC(=O)N(C)C2CCCCC2)c1 (configuration not stated),–,inactive: -17.7%
COc1ccc(C(=O)COC(=O)C2CC3CCCC(C2)C3=O)cc1Br (configuration not stated),"inconclusive [inhibitor, single point]",–
O=C(/C=C/c1cccc(C(F)(F)F)c1)Nc1cccc(C(F)(F)F)c1,active: 7.38 µM,–
CCOC(=O)[C@H]1[C@H]2COc3ccc(C)cc3[C@@H]2N2C(=O)CN(Cc3ccc(C)cc3)C(=O)[C@@]12C,"inconclusive [inhibitor, single point]",–

Structure (SMILES),Potency,"activity change, negative = inhibition"
CC(C)NC(=O)C1CCN(Cc2cnn(-c3ccccc3)c2-n2cccc2)CC1,"inconclusive [inhibitor, partial curve, poor fit]",–
CC#CCCc1nc2ccccc2c(=O)n1N,–,inactive: 7.95%
Cc1ccc(C(=O)n2ncn(C)c2=S)cc1,–,inactive: 0%
Cc1noc(C)c1COc1ccc(CC(=O)NC2CCCCCC2)cc1,"inconclusive [inhibitor, single point]",–
Cc1[nH]c2ccc3c(ncn3CCC#N)c2c1C,–,inactive: -1.97%
CC1(C)CC(=O)c2cc(OCC(=O)NCCCN3CCN(c4ccc(F)cc4)CC3)ccc2O1,"inconclusive [inhibitor, single point]",–
CCN(CC)CCOCCOC(=O)C(CC)(CC)c1ccccc1,–,inactive: -7.23%
O=C(NCCc1ccccc1)C(=O)c1c[nH]c2ccccc12,"inconclusive [inhibitor, full curve]",–
COc1ccc(CCC(=O)NCC(c2ccco2)N2CCc3ccccc32)cc1 (configuration not stated),"inconclusive [inhibitor, partial curve, poor fit]",–
Cc1ccc(CN2CC(C(=O)NC3CCCC(C)C3C)CC2=O)cc1 (configuration not stated),"inconclusive [inhibitor, single point]",–
CCN1C(=O)[C@H]2[C@@H](c3ccc(-c4ccc(F)cc4)cc3)N3CCCC[C@@]3(C(=O)OC)[C@H]2C1=O,active: 9.28 µM,–
CCOC(=O)c1c(-c2ccc(C)o2)csc1NC(=O)CSc1nncs1,active: 10.4 µM,–
CCN(CC(=O)Nc1c(C(=O)OC)[nH]c2ccc(C)cc12)c1ccc2c(c1)OCO2,active: 13.1 µM,–
CC(C)(C)c1ccc(CN(Cc2ccco2)Cc2nnnn2C2CCCC2)cc1,active: 9.28 µM,–
COc1ccc(C2CC(C)(c3ccc(OC)cc3OC)Nc3ccccc3N2)c(OC)c1 (configuration not stated),–,inactive: 131%
O=C1/C(=C/c2ccncc2)CCc2ccccc21,"inconclusive [inhibitor, full curve]",–
Cc1ccn(CC(=O)N2CCCC(Nc3ccc(F)c(F)c3)C2)n1 (configuration not stated),"inconclusive [inhibitor, partial curve]",–
COc1ccc2ccccc2c1/C=N/NC(=O)c1sc(N)c(C#N)c1C,"inconclusive [inhibitor, single point]",–
CN1C(=O)Cc2cc(S(=O)(=O)NCCc3ccc(Cl)cc3)ccc21,"inconclusive [inhibitor, single point]",–
CCN(CC)CCCNc1oc(-c2ccc(OC)c(OC)c2)nc1C#N,–,inactive: -4.27%
O=C1NC(=O)[C@@H]2C3c4ccccc4C=CN3[C@H](C(=O)c3cccs3)[C@H]12 (some centres not stated),–,inactive: 28.1%
CCN1CCN(C(c2cccs2)C(C)NC(=O)Oc2ccccc2)CC1 (configuration not stated),"inconclusive [inhibitor, single point]",–
CN(C)C=Nc1nonc1-c1ccccc1,"inconclusive [inhibitor, single point]",–
CCc1ccc(NC(=O)C(C)OC(=O)c2cccc(S(=O)(=O)N3CCc4ccccc4C3)c2)cc1 (configuration not stated),–,inactive: 2.87%

Structure (SMILES),Potency,"activity change, negative = inhibition"
CCN1C(=O)/C(=C2/C=Cc3ccccc3N2CC)SC1=S,–,inactive: -0.0849%
CCOC(=O)N1CCN(C2=C(NS(=O)(=O)c3ccc(NC(C)=O)cc3)C(=O)c3ccccc3C2=O)CC1,"inconclusive [inhibitor, partial curve]",–
COc1ccc(C2C(C(N)=O)=C(C)Nc3ncnn32)cc1 (configuration not stated),–,inactive: 24.3%
O=C(Nc1ncc2c(n1)CC(c1cccc(Cl)c1)CC2=O)c1ccco1 (configuration not stated),"inconclusive [inhibitor, single point]",–
Cc1cccn2c(=O)c3cc(C(=O)NC4CCCC4)sc3nc12,"inconclusive [inhibitor, single point]",–
Cc1ccc(-c2nn(-c3ccccc3)cc2C2CC(c3ccccc3)=NN2C(=O)CCC(=O)O)cc1 (configuration not stated),"inconclusive [inhibitor, single point]",–
COc1ccc(-c2nc(C#N)c(N3CCc4ccccc4C3)o2)cc1OC,–,inactive: 0.511%
O=C(NCC1CCCO1)c1ccccc1OCc1ccc(Cl)cc1 (configuration not stated),"inconclusive [inhibitor, single point]",–
COc1cc(OC)cc(C(=O)NC(C)c2cnn(-c3ccccc3C)c2C)c1 (configuration not stated),"inconclusive [inhibitor, single point]",–
Cc1nc2c(C(=O)N3CCN(c4ccccn4)CC3)cnn2c(C)c1Cc1cccc(Cl)c1,–,inactive: 8.73%
O=C(O)c1cc2nccc(-c3ccco3)n2n1,–,inactive: 5.58%
CCN(CC(=O)Nc1ccccc1OC)CC(=O)Nc1ccccc1C(F)(F)F,"inconclusive [inhibitor, partial curve, poor fit]",–
CCC(C)(C)NC(=O)C(c1ccc(C)cc1)N(CC1CCCO1)C(=O)c1csnn1 (configuration not stated),–,inactive: -12.8%
Cc1ccc2[nH]c(C)c(/C=C/c3cc[n+](C)cc3)c2c1,"inconclusive [inhibitor, full curve]",–
Cc1cc(Nc2ccccc2)c2c([N+](=O)[O-])ccc(C)c2n1,"inconclusive [inhibitor, partial curve]",–
S=C(Nc1ccc(Cl)cc1Cl)Nc1ccccc1Oc1ccccc1,"inconclusive [inhibitor, single point]",–
Cc1ccc(N(CC(=O)Nc2ccccc2-c2ccccc2)S(=O)(=O)c2ccccc2)c(C)c1,active: 11.7 µM,–
CC1CC(C)CN(CCOCCSc2ccccc2)C1 (configuration not stated),"inconclusive [inhibitor, single point]",–
COc1ccc(C(=O)NC(=S)NNC(=O)[C@H]2C[C@@H]2c2ccccc2)cc1OC,"inconclusive [inhibitor, full curve, poor fit]",–
COc1ccc(-n2cnc3cc(C(=O)N4CCC5(CC4)OCCO5)ccc32)cc1,"inconclusive [inhibitor, single point]",–
O=C(COC(=O)CNC(=O)c1ccc(Cl)cc1)Nc1ccc2c(c1)OCCO2,–,inactive: 0%
COCc1nnc(NC(=O)CSCc2ccccc2)s1,–,inactive: 33.8%
Cc1ccccc1-c1nc(CN2CCC(C(=O)NCCCN3CCCC3)CC2)c(C)o1,"inconclusive [inhibitor, single point]",–
CC(=O)N1CCc2cc(Br)cc(S(=O)(=O)CCC(=O)N3CCN(c4ccccn4)CC3)c21,"inconclusive [inhibitor, single point]",–
